Source: PubChem BioAssay AID504832 (National Center for Advancing Translational Sciences (NCATS), 2011)
The campaign covered roughly 310,000 compounds. About 18,000 (5.8%) were called active. The inconclusive results got no clear call from the source; some entries with a clear call stand among them for comparison. Calls come from the whole dose curve; as a rule, active = well fitted inhibition curve with a large enough effect; inconclusive = small, poorly fitted or top-dose-only effect, or another doubt; inactive = no such curve, though single readings can be large or run the other way. Potencies of inconclusive entries are left out as doubtful fits.

Test: Primary qHTS for delayed death inhibitors of the malarial parasite plastid, 48 hour incubation
Details: P. falciparum luciferase growth in erythrocytes; series mostly up to 28.7 µM
In short: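 Erythrocytes infected with P. falciparum carrying an integrated firefly luciferase reporter (2% hematocrit, 0.1% parasitemia final) were exposed to compounds in RPMI 1640 with 0.5% Albumax at 37 C, 5% CO2. Growth inhibition was scored as reduced luminescence.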
% is set by controls: 0 for no effect and ±100 for the full control effect; potency is the fitted concentration of half-maximal effect; tags give direction and shape of the fitted curve.

SMILES | Potency | activity change, negative = inhibition
CCn1c(SCc2ccc(F)cc2)nnc1C1CCN(S(=O)(=O)c2ccc(OC)cc2)CC1 | active: 11.7 µM | –
O=[N+]([O-])c1cccc(N/N=C/c2cc([N+](=O)[O-])ccc2O)c1 | inactive | –
CCOC(=O)c1ccc(N2C(=O)CC(Nc3ccc(CCO)cc3)C2=O)cc1 (stereo unspecified) | inactive | –
O=C(O)CCNc1ccc(Cl)cc1 | inactive | –
Cc1cc(NC(=O)CSCC(=O)N2CCN(c3cccc(C(F)(F)F)c3)CC2)no1 | inconclusive [inhibitor, partial curve, poor fit] | –
COc1ccc(CN(C)Cc2nc(Cc3cccc(F)c3)no2)c2cccnc12 | inconclusive [inhibitor, partial curve] | –
O=S(=O)(N[C@H]1C[C@@H](NS(=O)(=O)OCC(Cl)(Cl)Cl)C2CCCCC21)OCC(Cl)(Cl)Cl (stereo partly specified) | inactive | –
COc1ccc(N2CCN(C(=O)COC(=O)Cc3cccc(OC)c3)CC2)cc1 | inconclusive [inhibitor, single point] | –
Cc1ccc2[nH]c(=O)c(CN(Cc3ccc4c(c3)OCO4)Cc3nnnn3Cc3ccco3)cc2c1 | inconclusive [inhibitor, partial curve] | –
CCOC(=O)c1cc2c(ccn2C)n1Cc1ccccc1C | inconclusive [inhibitor, single point] | –
CC(=O)Nc1ccc(S(=O)(=O)C(C#N)c2nc3ccccc3nc2NCCN2CCOCC2)cc1 (stereo unspecified) | inconclusive [inhibitor, single point] | –
COc1ccc(S(=O)(=O)N2CCN(C)CC2)cn1 | inconclusive [inhibitor, single point] | –
O=C(c1c(F)cccc1F)N1CCCC(c2nc(-c3cccs3)no2)C1 (stereo unspecified) | inactive | –
Cc1c(N2C(=O)CS/C2=N\N=C\c2ccc(Cl)cc2)c(=O)n(-c2ccccc2)n1C | inactive | –
CCOC(=O)CSc1nc2ccc(C)cc2n2cnnc12 | inconclusive [inhibitor, partial curve] | –
CSc1nnc2c3cc(F)ccc3n(Cc3ccccc3)c2n1 | inconclusive [inhibitor, partial curve, poor fit] | –
O=C(CSc1nnc2sc3ccccc3n12)c1ccco1 | inactive | –
CN(C)c1ccc(-c2nc3ccccc3c(=O)[nH]2)cc1 | inactive | –
COC(=O)N/N=C1/C/C(=N\NC(=O)OC)c2ccccc21 | inconclusive [inhibitor, partial curve, poor fit] | –
CCCNC(=O)c1cc(Cl)c(NC(=O)C2=C(C)OCCS2)cc1OC | inconclusive [inhibitor, single point] | –
O=C(NCC(c1ccco1)N1CCCC1)c1cn(Cc2ccccc2)nc1-c1ccccc1 (stereo unspecified) | inconclusive [inhibitor, single point] | –
COc1cccc(OC)c1OC(=O)c1cnccn1 | inactive | –
CCc1nnc(SCCSc2nnc(CC)n2N)n1N | inactive | –
COc1ccc(C2c3ccc4ccccc4c3Oc3ncn(Cc4ccco4)c(=N)c32)cc1OC (stereo unspecified) | active: 13.1 µM | –

SMILES | Potency | activity change, negative = inhibition
O=C1NC(=Nc2ccc(Cl)cc2)/C(=C/c2ccco2)S1 | inconclusive [inhibitor, single point] | –
Cc1cn([C@H](C(=O)NCCCCCCCCCCC(=O)N2CCN(C(=O)OC(C)(C)C)CC2)[C@@H](C)O)nn1 | active: 10.4 µM | –
CN(CC(=O)Nc1ccc(F)cc1)C(=O)c1cn(-c2ccccc2)nc1-c1cccs1 | inconclusive [inhibitor, partial curve, poor fit] | –
CC(=O)CC[C@@H](C)O[C@@H]1OC(C)[C@H](O)CC1O (stereo partly specified) | inactive | –
CCCCN(CC)CCCNC(=O)C1CCN(c2ncnc3c2sc2cccc(F)c23)CC1 | inconclusive [inhibitor, full curve, poor fit] | –
O=C(c1nc2ccc(Cl)cn2c1CN1CCC(O)CC1)N1CCc2ccccc2C1 | inconclusive [inhibitor, single point] | –
Nc1nonc1C(=O)NCCNCc1cc(Br)ccc1OCc1ccc(F)cc1 | inconclusive [inhibitor, single point] | –
CC(Oc1ccccc1)C(=O)Nc1c2c(nn1-c1ccccc1)CS(=O)(=O)C2 (stereo unspecified) | inactive | –
O=C(Nc1cccc2ncccc12)c1cc(Br)ccc1Cl | inactive | –
O=C(NC1CCOc2ccccc21)C1CCCC1 (stereo unspecified) | inactive | –
Cc1ccc(Cl)cc1N1CCN(Cc2nc3c(c(=O)[nH]c(=O)n3C)n2Cc2ccccc2F)CC1 | inconclusive [inhibitor, full curve] | –
CCN(CC(=O)Nc1ccccc1OC)C(=O)c1ccc(NC(=O)c2cccs2)cc1 | active: 7.38 µM | –
Cc1c(C(=O)NCCc2ccccc2)oc2ccc(S(=O)(=O)N3CCC4(CC3)OCCO4)cc12 | inconclusive [inhibitor, partial curve, poor fit] | –
CC(Nc1ccc(Cl)cc1)c1cc(Cl)ccc1O (stereo unspecified) | active: 9.28 µM | –
C=C(C)Cn1c(NCCOC)nc2c1c(=O)[nH]c(=O)n2C | inconclusive [inhibitor, single point] | –
O=C(CCS(=O)(=O)c1ccccc1)NCc1ccccc1 | inactive | –
O=C(Nc1cc(=O)c2ccccc2o1)N1CCCCC1 | active: 4.65 µM | –
Cc1ccc(CN2C(=O)NC(=O)C3(Cc4c(nc5ccccn5c4=O)N4CCCCCC43)C2=O)cc1 (stereo unspecified) | inconclusive [inhibitor, single point] | –
CN1C(=O)/C(=C/c2cn(CC(=O)N3CCCCC3)c3ccccc23)c2ccccc21 | inconclusive [inhibitor, single point] | –
O=C(NC1CCCCCCC1)c1cc(COc2ccc3ncccc3c2)on1 | inconclusive [inhibitor, single point] | –
Cc1ccc(-n2nc3c(=O)n(C(C)C(=O)NCCC4=CCCCC4)nc(C)c3c2C)cc1 (stereo unspecified) | inconclusive [inhibitor, partial curve] | –
O=C(N/N=C/C(Br)=C/c1ccccc1)c1ccccc1F | inconclusive [inhibitor, single point] | –
COc1ccc(S(=O)(=O)N2CCC(C(=O)NCc3ccc(C)cc3)CC2)cc1 | inconclusive [inhibitor, partial curve, poor fit] | –
Cc1sc2nc3ccc(N4CCCCC4)nn3c(=O)c2c1C | inconclusive [inhibitor, single point] | –

SMILES | Potency | activity change, negative = inhibition
C[C@H](NC(=O)C1CCN(C(=O)[C@H](Cc2ccccc2)NC(=O)OC(C)(C)C)CC1)C(=O)O | – | inactive: -13.3% [at 0.00184 µM]
O=C(O)CCc1ccc(-c2cccs2)n1NC(=O)c1ccc(Cl)cc1 | inactive | –
CCCc1nc(SCC(=O)NCc2ccco2)c2c(=O)n(C)c(=O)n(C)c2n1 | inactive | –
CN1c2ccc([N+](=O)[O-])cc2N(C)C1(C)c1ccccc1 (stereo unspecified) | active: 11.7 µM | –
CCCCN(C(=O)c1ccc(N(C)S(=O)(=O)c2ccc(C)cc2)cc1)c1c(N)n(CCCC)c(=O)[nH]c1=O | inconclusive [inhibitor, partial curve, poor fit] | –
Cc1ccc(S(=O)(=O)c2nnn3c2nc(Nc2cccc(C)c2)c2ccccc23)cc1 | inconclusive [inhibitor, single point] | –
O=c1c2ccccc2nc2sc(Nc3ccc(F)cc3)nn12 | inconclusive [activator, full curve] | –
Cc1ccc(-c2nc(C)sc2CC(=O)Nc2nnc(C)s2)cc1 | inconclusive [inhibitor, partial curve] | –
Cc1nc2ccc(NC(=O)CCC3CCCC3)cc2s1 | inactive | –
CCOC(=O)C1=C(C)NC(=O)NC1c1ccc(OCC(=O)Nc2ccccc2)c(OC)c1 (stereo unspecified) | inconclusive [inhibitor, partial curve] | –
COc1cccc(C(C)N(C)Cc2nc(-c3ccoc3)oc2C)c1 (stereo unspecified) | inactive | –
CCn1c(-c2ccccn2)nc2cc(S(=O)(=O)N(C)C)ccc21 | inactive | –
CNc1oc(-c2ccccc2Cl)nc1P(=O)(c1ccccc1)c1ccccc1 | inconclusive [inhibitor, partial curve, poor fit] | –
CCOC(=O)C1CCCN(C(=O)c2ccc3nc(-c4ccccc4)c(-c4ccccc4)nc3c2)C1 (stereo unspecified) | inconclusive [inhibitor, single point] | –
CN(C)c1ccc(NC(=O)CSc2nc(N)c(C(=O)Nc3ccc(N(C)C)cc3)s2)cc1 | inconclusive [inhibitor, single point] | –
O=C(O)CC1SC(N/N=C/c2ccc(Br)cc2)NC1=O (stereo unspecified) | inactive | –
COc1ccc(CN2CCN(Cc3cc(=O)oc4cc(C)ccc34)CC2)c(OC)c1OC | inconclusive [inhibitor, partial curve, poor fit] | –
O=C(CSc1n[nH]c(-c2cccs2)n1)N1CCN(S(=O)(=O)c2ccccc2)CC1 | inconclusive [inhibitor, single point] | –
CC(C)(C)C(=O)/C(=C\c1ccc([N+](=O)[O-])cc1)n1cncn1 | active: 11.7 µM | –
COc1ccc(C)cc1NC(=O)C(OC(=O)CNC(=O)c1ccc(Br)cc1)c1ccccc1 (stereo unspecified) | inactive | –
Nc1ccc(C(=O)OCCCc2nc3cc4ccccc4cc3[nH]2)cc1 | inconclusive [inhibitor, partial curve, poor fit] | –
CN1N=C(/C=C/c2ccccc2)CCC1=O | inactive | –
O=C(NCc1nnc(SCC(=O)N2CCN(c3ccccc3)CC2)o1)c1ccc(F)cc1 | inactive | –
